Source: the supplement of paper PMC8728848
Some of the results follow.

Columns and labels:
Experiment in all cases: glycan array binding signal (z-score within array); higher = stronger binding
Conditions in all cases: glycan notation: IUPAC condensed, linker removed
[1] = biological target: Gal(b1-4)GlcNAc(b1-3)Gal(b1-4)GlcNAc(b1-3)Gal(b1-4)GlcNAc(b1-3)Gal(b1-4)GlcNAc(b1-2)Man(a1-3)[Gal(b1-4)GlcNAc(b1-3)Gal(b1-4)GlcNAc(b1-3)Gal(b1-4)GlcNAc(b1-3)Gal(b1-4)GlcNAc(b1-2)Man(a1-6)]Man(b1-4)GlcNAc(b1-4)[Fuc(a1-6)]GlcNAc
How it was run: (§1)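 Columns mapping to the same glycan were averaged after glycan names were converted to IUPAC-condensed notation. The data come from 3228 arrays in the Consortium for Functional Glycomics database, limited to those with an available protein sequence. Binding is reported as a within-array Z-score averaged across arrays of one protein sequence and across linkers.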

[2] = biological target: Gal(b1-4)GlcNAc(b1-3)Gal(b1-4)GlcNAc(b1-3)Gal(b1-4)GlcNAc(b1-3)Gal(b1-4)GlcNAc(b1-2)[Gal(b1-4)GlcNAc(b1-3)Gal(b1-4)GlcNAc(b1-3)Gal(b1-4)GlcNAc(b1-3)Gal(b1-4)GlcNAc(b1-6)]Man(a1-6)[Gal(b1-4)GlcNAc(b1-3)Gal(b1-4)GlcNAc(b1-3)Gal(b1-4)GlcNAc(b1-3)Gal(b1-4)GlcNAc(b1-2)Man(a1-3)]Man(b1-4)GlcNAc(b1-4)[Fuc(a1-6)]GlcNAc
How it was run: as §1

[3] = biological target: Gal(b1-4)GlcNAc(b1-3)Gal(b1-4)GlcNAc(b1-3)Gal(b1-4)GlcNAc(b1-3)Gal(b1-4)GlcNAc(b1-3)Gal(b1-4)GlcNAc(b1-2)Man(a1-3)[Gal(b1-4)GlcNAc(b1-3)Gal(b1-4)GlcNAc(b1-3)Gal(b1-4)GlcNAc(b1-3)Gal(b1-4)GlcNAc(b1-3)Gal(b1-4)GlcNAc(b1-2)Man(a1-6)]Man(b1-4)GlcNAc(b1-4)GlcNAc
How it was run: as §1

[4] = biological target: Gal(b1-4)GlcNAc(b1-3)Gal(b1-4)GlcNAc(b1-3)Gal(b1-4)GlcNAc(b1-3)Gal(b1-4)GlcNAc(b1-3)Gal(b1-4)GlcNAc(b1-2)Man(a1-3)[Gal(b1-4)GlcNAc(b1-3)Gal(b1-4)GlcNAc(b1-3)Gal(b1-4)GlcNAc(b1-3)Gal(b1-4)GlcNAc(b1-3)Gal(b1-4)GlcNAc(b1-2)Man(a1-6)]Man(b1-4)GlcNAc(b1-4)[Fuc(a1-6)]GlcNAc
How it was run: as §1

[5] = biological target: Gal(b1-4)GlcNAc(b1-3)Gal(b1-4)GlcNAc(b1-3)Gal(b1-4)GlcNAc(b1-3)Gal(b1-4)GlcNAc(b1-3)Gal(b1-4)GlcNAc(b1-2)[Gal(b1-4)GlcNAc(b1-3)Gal(b1-4)GlcNAc(b1-3)Gal(b1-4)GlcNAc(b1-3)Gal(b1-4)GlcNAc(b1-3)Gal(b1-4)GlcNAc(b1-6)]Man(a1-6)[Gal(b1-4)GlcNAc(b1-3)Gal(b1-4)GlcNAc(b1-3)Gal(b1-4)GlcNAc(b1-3)Gal(b1-4)GlcNAc(b1-3)Gal(b1-4)GlcNAc(b1-2)Man(a1-3)]Man(b1-4)GlcNAc(b1-4)[Fuc(a1-6)]GlcNAc
How it was run: as §1

[6] = biological target: Gal(b1-4)GlcNAc(b1-3)Gal(b1-4)GlcNAc(b1-3)Gal(b1-4)GlcNAc(b1-3)Gal(b1-4)GlcNAc(b1-3)Gal(b1-4)GlcNAc(b1-3)Gal(b1-4)GlcNAc(b1-2)Man(a1-3)[Gal(b1-4)GlcNAc(b1-3)Gal(b1-4)GlcNAc(b1-3)Gal(b1-4)GlcNAc(b1-3)Gal(b1-4)GlcNAc(b1-3)Gal(b1-4)GlcNAc(b1-3)Gal(b1-4)GlcNAc(b1-2)Man(a1-6)]Man(b1-4)GlcNAc(b1-4)GlcNAc
How it was run: as §1

[7] = biological target: Gal(b1-4)GlcNAc(b1-3)Gal(b1-4)GlcNAc(b1-3)GalNAc
How it was run: as §1

[8] = biological target: Gal(b1-4)GlcNAc(b1-3)Gal(b1-4)GlcNAc(b1-3)[Gal(b1-4)GlcNAc(b1-3)Gal(b1-4)GlcNAc(b1-6)]GalNAc
How it was run: as §1

[9] = biological target: Gal(b1-4)GlcNAc(b1-3)Gal(b1-4)GlcNAc(b1-6)[Gal(b1-3)]GalNAc
How it was run: as §1

[10] = biological target: Gal(b1-4)GlcNAc(b1-3)Gal(b1-4)[Fuc(a1-3)]GlcNAc(b1-3)Gal(b1-4)[Fuc(a1-3)]GlcNAc
How it was run: as §1

[11] = biological target: Gal(b1-4)GlcNAc(b1-3)GalNAc
How it was run: as §1

[12] = biological target: Gal(b1-4)GlcNAc(b1-3)[Fuc(a1-3)GlcNAc(b1-6)]Gal(b1-4)Glc
How it was run: as §1

[13] = biological target: Gal(b1-4)GlcNAc(b1-3)[Gal(b1-4)GlcNAc(b1-6)]Gal(b1-4)GlcNAc
How it was run: as §1

[14] = biological target: Gal(b1-4)GlcNAc(b1-3)[GlcNAc(b1-6)]Gal(b1-4)GlcNAc
How it was run: as §1

[15] = biological target: Gal(b1-4)GlcNAc(b1-6)Gal(b1-4)GlcNAc
How it was run: as §1

[16] = biological target: Gal(b1-4)GlcNAc(b1-6)GalNAc
How it was run: as §1

[17] = biological target: Gal(b1-4)GlcNAc(b1-6)[Gal(b1-3)]GalNAc
How it was run: as §1

[18] = biological target: Gal(b1-4)GlcNAc(b1-6)[Gal(b1-4)GlcNAc(b1-3)]GalNAc
How it was run: as §1

[19] = biological target: Gal(b1-4)GlcNAc6P
How it was run: as §1

[20] = biological target: Gal(b1-6)Gal
How it was run: as §1

[21] = biological target: Gal3S(b1-3)GalNAc
How it was run: as §1

[22] = biological target: Gal3S(b1-3)GlcNAc
How it was run: as §1

[23] = biological target: Gal3S(b1-3)[Fuc(a1-4)]GlcNAc
How it was run: as §1

[24] = biological target: Gal3S(b1-4)Glc
How it was run: as §1

[25] = biological target: Gal3S(b1-4)Glc6S
How it was run: as §1

[26] = biological target: Gal3S(b1-4)GlcNAc
How it was run: as §1

[27] = biological target: Gal3S(b1-4)[Fuc(a1-3)]Glc6S
How it was run: as §1

[28] = biological target: Gal3S(b1-4)[Fuc(a1-3)]GlcNAc
How it was run: as §1

[29] = biological target: Gal3S(b1-4)[Fuc(a1-3)]GlcNAc6S
How it was run: as §1

[30] = biological target: Gal3S4S(b1-4)GlcNAc
How it was run: as §1

[31] = biological target: Gal3S6S(b1-4)GlcNAc
How it was run: as §1

[32] = biological target: Gal3S6S(b1-4)GlcNAc6S
How it was run: as §1

[33] = biological target: Gal4S(b1-4)GlcNAc
How it was run: as §1

[34] = biological target: Gal4S6S(b1-4)GlcNAc
How it was run: as §1

[35] = biological target: Gal6P(b1-4)GlcNAc
How it was run: as §1

[36] = biological target: Gal6S(b1-3)GlcNAc
How it was run: as §1

[37] = biological target: Gal6S(b1-3)GlcNAc6S
How it was run: as §1

[38] = biological target: Gal6S(b1-4)Glc
How it was run: as §1

B1: PX9961X-pdi-531-24-531 (Parabacteroides distasonis) (protein)
chain: DLTEEIHSSVIAENYYNNAGEVMAAMMRPWGHFCGTMQVAQSPWSCNELSSDCAAWPQKGRHGYDNGDWIRLHRHQWIPTDGQVVDAWKKLFEGIGYANNFLTDTENIDFEALQVPMSKAQAQAEMRVYRAYCYWYVMDMFGTAPICEKIGEINPSSKSRAELFAWIEKELNESIPSLSESKTETYGRVSKWGAYALLARLYLNAEIYTGQARWDDCIAACDELAKGGFALDKKWNDTFRADNDKRSTEIIWSIVYDEVYAKGMGWYQRWLHYAHQTGWDLQSGPWNGLVTQPTFYDSFADNDLRKIEGFLIGKQYPRKVDENGNYYYDTTAEPLKGSEEYNGQDLVFVNYIKSMTEGEENSGARSIKYEIQPGTTGDMNNDWVMFRYSEVIYNKAEALMRKNGGKATQEVVDMINSVRQRSFKAEDWEKAKYTTATLTMDEFLAEKGREFAFEGIRRTDLVRFNKFVTTSWWDKTASNEPKRNIFPIPQRQLDANANLSPNEANSLF
- glycan array binding signal (z-score) [1]: 0.526
- glycan array binding signal (z-score) [2]: 3.6
- glycan array binding signal (z-score) [3]: 0.491
- glycan array binding signal (z-score) [4]: 0.433
- glycan array binding signal (z-score) [5]: 3.41
- glycan array binding signal (z-score) [6]: 0.947
- glycan array binding signal (z-score) [7]: 0.788
- glycan array binding signal (z-score) [8]: 0.654
- glycan array binding signal (z-score) [9]: -0.746
- glycan array binding signal (z-score) [10]: -0.285
- glycan array binding signal (z-score) [11]: -0.769
- glycan array binding signal (z-score) [12]: -0.157
- glycan array binding signal (z-score) [13]: -0.863
- glycan array binding signal (z-score) [14]: -0.687
- glycan array binding signal (z-score) [15]: -0.303
- glycan array binding signal (z-score) [16]: -0.012
- glycan array binding signal (z-score) [17]: -0.374
- glycan array binding signal (z-score) [18]: 1.02
- glycan array binding signal (z-score) [19]: -0.916
- glycan array binding signal (z-score) [20]: -0.051
- glycan array binding signal (z-score) [21]: -0.342
- glycan array binding signal (z-score) [22]: -0.546
- glycan array binding signal (z-score) [23]: 0.453
- glycan array binding signal (z-score) [24]: 0.131
- glycan array binding signal (z-score) [25]: 0.067
- glycan array binding signal (z-score) [26]: -0.651
- glycan array binding signal (z-score) [27]: 1.07
- glycan array binding signal (z-score) [28]: -0.375
- glycan array binding signal (z-score) [29]: 0.347
- glycan array binding signal (z-score) [30]: -1.15
- glycan array binding signal (z-score) [31]: 0.736
- glycan array binding signal (z-score) [32]: 1.11
- glycan array binding signal (z-score) [33]: -0.114
- glycan array binding signal (z-score) [34]: -0.746
- glycan array binding signal (z-score) [35]: -0.516
- glycan array binding signal (z-score) [36]: 0.59
- glycan array binding signal (z-score) [37]: -0.672
- glycan array binding signal (z-score) [38]: 0.376
